Experimental data taken from patent US11192863B2, “Antiviral compounds and methods” (Biotron Limited, priority 2003, dated 2021).

What was measured:
MHV E protein = MHV E protein (Murine coronavirus, UniProt P0C2R0); details: halo of growth score; E. coli expressing E protein at 37° C.
Vpu ion channel = Vpu ion channel (Human immunodeficiency virus type 1 group M subtype B, UniProt P05919); details: for Results (Compounds Inhibiting the Vpu Ion Channel in Bilayers): drug 100 μM in CIS and TRANS chambers, Vpu N-terminal peptide (residues 1-32), number of experiments x category; for blocking of Vpu channels (in words): bilayer experiments
HCV p7 protein = HCV p7 protein (Hepatitis C virus genotype 1a, UniProt P27958, L790F); details: halo of growth score; E. coli expressing p7 at 37° C.
[1] = target: MHV E protein ion channel (Murine coronavirus, UniProt P0C2R0); assay: MHV E protein ion channel in planar lipid bilayers; assay type: biochemical, Murine hepatitis virus; details: 100 μM added to the cis chamber; FIG. 12
P7 peptide channels = P7 peptide channels (Hepatitis C virus genotype 1a, UniProt P27958, L790F)

Row | SMILES | MHV E protein Inhibition (score) (MHV E protein) | Results (Compounds Inhibiting the Vpu Ion Channel in Bilayers) (Vpu ion channel) | HCV p7 protein Inhibition (score/# of times tested) (HCV p7 protein) | other results
1 | N=C(N)NC(=O)/C=C/c1cccc(C(F)(F)F)c1 [3-(trifluoromethyl)cinnamoylguanidine] | 2.9 score | 4x strong blocks; 1x no effect | 3.34/3 score | –
2 | O=C(CCc1ccccc1)NC(=Nc1ccccc1)NC(=O)CCc1ccccc1 [N,N′-bis(3phenylpropanoyl)-N″-phenylguanidine] | 0.8 score | 7x weak block | 2.0/1 score | –
3 | Cc1cccc(/C=C/C(=O)NC(=N)N)c1 [3-methylcinnamoylguanidine] | 0.5 score | 2x strong block; 2x partial | 0.63/1 score | –
4 | NC(N)=NC(=O)c1ccc2ccccc2c1 [2-napthoylguanidine] | 0.6 score | 7x weak block | 1.0/3 score | –
5 | NC(N)=NC(=O)/C=C/c1ccccc1 [cinnamoylguanidine] | 1.1 score | 3x weak block | 1.00/1 score | current flow through the MHV E ion channel (in words) [1]: greatly reduced current flow
6 | N=C(N)NC(=O)/C=C/c1ccccc1Cl [(2-Chlorocinnamoyl)guanidine] | 0.7 score | 4x strong; 2x partial blocks | 3.31/6 score | –
7 | N=C(NC(=O)CCc1ccccc1)Nc1ccccc1 [N-(3-phenylpropanoyl)-N′-phenylguanidine] | 0.8 score | 1x strong blocks | 2.0/1 score | –
8 | NC(N)=NC(=O)c1nc(Cl)c(N2CCCCCC2)nc1N [5-(N,N-hexamethylene)amiloride] | 1.1 score | 1x Strong block; | 1.28/4 score | concentration at which the Vpu channel is blocked (as low as) (Vpu ion channel; bilayers): 25 µM; P7 channel activity (in words) (P7 peptide channels; 100 μM HMA, 4 experiments): Block of channel activity; P7 sodium channels (500/50) (in words) (P7 peptide channels; 500 μM HMA, 2 experiments): blocked; P7 channel activity after addition of HMA (in words) (P7 peptide channels; 2 μl of 50 μM HMA to the cis chamber): disappearance of the channel activity; channels formed by the P7 peptide (in words) (P7 peptide channels; bilayers): blocked
9 | NC(N)=NC(=O)/C=C/C=C/c1ccccc1 [(5-Phenyl-penta-2,4-dienoyl)guanidine] | 1.4 score | 6x strong block | 2.13/1 score | –
10 | CC(C)(C)Nc1nc(N)c(C(=O)N=C(N)N)nc1Cl [5-tert-butylamino-amiloride] | 0.1 score | 3x partial block | 1.88/1 score | –
11 | N=C(N)NC(=O)c1ccc(-c2ccccc2)cc1 [4-phenylbenzoylguanidine] | 1.8 score | 3x strong block | 2.19/2 score | –
12 | N=C(N)NC(=O)/C=C/c1cccc(Br)c1 [(3-Bromocinnamoyl)guanidine] | 2.4 score | 3x partial-strong block | 2.92/3 score | –
13 | COc1ccc2cc(C(=O)NC(=N)N)ccc2c1 [6-methoxy-2-naphthoylguanidine] | 1.8 score | 5x strong block | 3.33/3 score | –
14 | CCN(c1nc(N)c(C(=O)N=C(N)N)nc1Cl)C(C)C [5-(N-Ethyl-N-isopropyl)amiloride, 5-(N-ethyl-N-isopropyl)amiloride] | – | 1x partial block | 1.88/1 score | Results (Compounds Inhibiting the Vpu Ion Channel in Bilayers) (Vpu ion channel; listed as EIPA): 3x weak block;
15 | CC(C)CN(C)c1nc(N)c(C(=O)N=C(N)N)nc1Cl [5-(N-Methyl-N-isobutyl)amiloride, 5-(N-methyl-N-isobutyl)amiloride] | – | 1x partial block | 1.88/1 score | Results (Compounds Inhibiting the Vpu Ion Channel in Bilayers) (Vpu ion channel; listed as MIA): 1x Strong block; 1x weak
16 | N/C(=N\C(=O)c1nc(Cl)c(N)nc1N)Nc1ccccc1 [Phenamil, N-(3,5-Diamino-6-chloro-pyrazine-2-carbonyl)-N′-phenylguanidine] | – | 3x Strong block | – | blocking of Vpu channels (in words) (Vpu ion channel): strong blocking
17 | N=C(N)NC(=O)c1nc(Cl)c(N)nc1N [Amiloride, reference compound] | – | – | – | blocking of Vpu channels (in words) (Vpu ion channel): not a blocker
18 | N=C(N)NC(=O)/C=C/c1cccc(Cl)c1 [(3-Chlorocinnamoyl)guanidine] | 0.4 score | 2x strong block; 2x partial | 2.75/3 score | –

Like-named read-outs stand apart in the source and are kept apart here.
